Measured values: PubChem BioAssay AID1460 (National Center for Advancing Translational Sciences (NCATS), 2008)
About 5,800 (2.1%) of roughly 270,000 compounds were called active. The inconclusive results got no clear call from the source; some entries with a clear call stand among them for comparison. The call rests on the fitted dose curve; in most records, active means well fitted inhibition curve with a large enough effect; inconclusive means small, poorly fitted or top-dose-only effect; inactive means flat fitted curve, though single readings scatter. Potencies of inconclusive entries are doubtful fits and often do not repeat.

target: Microtubule-associated protein tau (Homo sapiens) (UniProt P10636); experiment: qHTS for Inhibitors of Tau Fibril Formation, Thioflavin T Binding; conditions: recombinant tau K18 P301L, heparin-induced fibrillization, ThT fluorescence; series mostly up to 57.4 µM; activity, negative = inhibition: at the top concentration; further: nearly all actives have a fitted effect of over 55% in size
Procedure, shortened: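 ThT emission at 510 nm, taken 1 hr after adding 30 uM dye, quantifies aggregates formed when 20 uM heparin acts on human tau K18 P301L for 6 hr at 37 C.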
On the % scale 0 is the no-effect control and ±100 the full control effect; potency means the concentration at half of the fitted maximal effect; tags describe the fitted curve by direction and shape.

UniProt P10636, sequence (P10636 whole entry, looked up): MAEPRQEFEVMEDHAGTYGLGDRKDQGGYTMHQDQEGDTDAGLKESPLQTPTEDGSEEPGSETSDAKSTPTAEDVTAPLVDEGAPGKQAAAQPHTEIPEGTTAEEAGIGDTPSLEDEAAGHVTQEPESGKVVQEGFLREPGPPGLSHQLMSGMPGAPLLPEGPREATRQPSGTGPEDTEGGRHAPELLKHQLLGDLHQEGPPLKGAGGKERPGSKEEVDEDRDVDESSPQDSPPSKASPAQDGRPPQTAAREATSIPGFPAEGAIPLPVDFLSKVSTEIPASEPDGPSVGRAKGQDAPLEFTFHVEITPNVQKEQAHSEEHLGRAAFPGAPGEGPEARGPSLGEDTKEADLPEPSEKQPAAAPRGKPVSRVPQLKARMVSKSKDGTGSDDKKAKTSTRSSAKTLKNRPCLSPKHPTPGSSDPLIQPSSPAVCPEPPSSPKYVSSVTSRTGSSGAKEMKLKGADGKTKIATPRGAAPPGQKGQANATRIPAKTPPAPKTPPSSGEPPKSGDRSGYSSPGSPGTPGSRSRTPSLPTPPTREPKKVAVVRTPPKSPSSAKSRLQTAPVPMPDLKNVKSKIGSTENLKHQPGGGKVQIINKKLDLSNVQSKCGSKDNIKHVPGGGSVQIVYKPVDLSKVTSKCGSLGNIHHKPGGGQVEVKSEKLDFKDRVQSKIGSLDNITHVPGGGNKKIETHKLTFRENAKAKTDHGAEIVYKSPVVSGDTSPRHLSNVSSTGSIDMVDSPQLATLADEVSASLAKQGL

**Q.** Cc1ccc(Cn2c(/C=C/c3ccco3)nc3ccccc32)cc1 was tested. Which Potency did it give?
**A.** active: 25.1 µM

**Q.** COc1ccc(-c2cc(C(=O)Nc3nc4c(C)cccc4s3)c3ccccc3n2)cc1OC was tested. Which “activity, negative = inhibition” value did it give?
**A.** inactive: -4.72%

**Q.** Which Potency does the source give for CC1(C)SC(=S)N(/N=C/c2ccccc2O)C1N(O)C(=O)Nc1ccccc1 (stereo not given) here?
**A.** inconclusive: 1.78 µM [inhibitor, full curve, poor fit]

**Q.** With O=C(OCC(=O)N1CCCC1)c1ccccc1OCc1ccccc1 as the compound, how does the “activity, negative = inhibition” value read?
**A.** inactive: -1.58%

**Q.** For CSc1ccc(-c2nc3c(C)cccn3c2Nc2ccc3c(c2)OCCO3)cc1, which Potency is on record?
**A.** inconclusive: 15.8 µM [inhibitor, partial curve]

**Q.** Which Potency does the source give for CC(=O)c1ccc(OCC(O)CN2CCN(CCN3C(=O)c4cccc5cccc(c45)C3=O)CC2)cc1 (stereo not given) here?
**A.** inconclusive: 20 µM [inhibitor, single point]

**Q.** Which Potency does the source give for CCc1ccc(NC(=O)c2ccc3nc(C(C)C)oc3c2)cc1 here?
**A.** inconclusive: 1.78 µM [inhibitor, partial curve, poor fit]

**Q.** CC(=Nc1ccccc1)c1sc2ccccc2c1O was tested. Which Potency did it give?
**A.** inconclusive: 7.94 µM [inhibitor, partial curve]

**Q.** How did the “activity, negative = inhibition” value turn out when CCN1CCN(CCNC(=O)C2CCCN(Cc3nc(-c4cccc(Cl)c4)oc3C)C2)CC1 (stereo not given) was run?
**A.** inactive: -11%

**Q.** How did the Potency turn out when CSc1nc(N)nc(SCC(=O)c2ccc(C)cc2)c1C#N was run?
**A.** inconclusive: 2.82 µM [inhibitor, full curve]

**Q.** Which Potency does the source give for COc1ccc(NC(=O)/C=C/c2c(Cl)nc3ccccn23)cc1 here?
**A.** inconclusive: 20 µM [inhibitor, partial curve]

**Q.** For CCOc1ccccc1-c1nc(CN2CCCC2c2nccs2)c(C)o1 (stereo not given), which Potency is on record?
**A.** inconclusive: 22.4 µM [inhibitor, partial curve]

**Q.** For O=C(/C=C/c1cn(CC(O)CN2CCCCCC2)c2ccccc12)c1cccs1 (stereo not given), which Potency is on record?
**A.** inconclusive: 28.2 µM [inhibitor, partial curve]

**Q.** For COc1ccc2c(c1)c1c(c(=O)n(Cc3ccccc3)c(=O)n1CC(=O)NCc1ccc(C)cc1)n2C, which “activity, negative = inhibition” value is on record?
**A.** inactive: -3.01%

**Q.** With COc1cccc(CN(C)c2nc(-c3cccs3)nc3ccccc23)c1 as the compound, how does the Potency read?
**A.** inconclusive: 15.8 µM [inhibitor, partial curve]

**Q.** For CCOC(=O)c1sc(N(Cc2ccccc2)C(=O)CSc2nnc(C3CC3)n2N)nc1C, which “activity, negative = inhibition” value is on record?
**A.** inactive: -0.574%

**Q.** How did the Potency turn out when O=C1C2=CC[C@H]3C(=O)N(C[C@@H]4CCCO4)C(=O)[C@@H]3[C@@H]2[C@H](O)[C@@H]2O[C@H]12 was run?
**A.** active: 3.16 µM

**Q.** With CCC(=O)N1CCc2cc(S(=O)(=O)CCC(=O)N3CCN(c4cccc(Cl)c4)CC3)ccc21 as the compound, how does the Potency read?
**A.** inconclusive: 7.08 µM [inhibitor, full curve]

**Q.** Cc1ccoc1C(=O)NCCCNC(=O)c1occc1C was tested. Which Potency did it give?
**A.** inconclusive: 25.1 µM [inhibitor, single point]

**Q.** Which Potency does the source give for CSc1ccc(C(=O)Nc2ccc(-c3nc4ccccc4s3)c(O)c2)cc1 here?
**A.** inconclusive: 0.447 µM [inhibitor, full curve, poor fit]

**Q.** Which Potency does the source give for Cc1cccc(-c2nc(CN3CCCC(C(=O)NCc4ccc(Cl)cc4)C3)c(C)o2)c1 (stereo not given) here?
**A.** inconclusive: 12.6 µM [inhibitor, single point]

**Q.** With O=C1c2ccccc2-c2cccc(NS(=O)(=O)c3ccc(C(F)(F)F)cc3)c21 as the compound, how does the Potency read?
**A.** inconclusive: 15.8 µM [inhibitor, partial curve]

**Q.** How did the “activity, negative = inhibition” value turn out when CCc1nn(-c2ccccc2)c2nc(-c3ccc(O)cc3)c3cc(OC)c(OC)cc3c12 was run?
**A.** inactive: -9.5%

**Q.** Which Potency does the source give for COC(=O)c1ccc(NC(=O)Cn2c(-c3nonc3N)nc3ccccc32)cc1 here?
**A.** inactive

**Q.** For CC(=O)Nc1ccc(NC(=O)COC(=O)CCc2nc3ccccc3s2)cc1, which Potency is on record?
**A.** inconclusive: 17.8 µM [inhibitor, single point]

**Q.** With COc1ccc(-c2csc(NNC3=NCCCCC3)n2)cc1 as the compound, how does the Potency read?
**A.** active: 25.1 µM

**Q.** With CCN(C(=O)CN1C(=O)COc2ccc(S(=O)(=O)N3CCOCC3)cc21)c1cccc(C)c1 as the compound, how does the “activity, negative = inhibition” value read?
**A.** inactive: -1.59%

**Q.** With O=C(NCc1ccco1)C1CCN(Cc2ccc(F)cc2)CC1 as the compound, how does the “activity, negative = inhibition” value read?
**A.** inactive: -8.04%

**Q.** For CCCn1c(N2CCN(CC(=O)c3c[nH]c4ccccc34)CC2)nc2c1c(=O)[nH]c(=O)n2C, which “activity, negative = inhibition” value is on record?
**A.** inactive: -4.77%

**Q.** CCC1CCc2nc3sc(C(=O)Nc4ccc(C)cc4C)c(N)c3cc2C1 (stereo not given) was tested. Which Potency did it give?
**A.** inconclusive: 0.708 µM [inhibitor, full curve]

**Q.** Which activity, negative = inhibition does the source give for COCOc1cc(OC)ccc1C(=O)/C=C\c1ccc2c(c1)OCO2 here?
**A.** inactive: -15.1% [at 11.5 µM]

**Q.** How did the “activity, negative = inhibition” value turn out when O=C(Nc1ccc(-c2csnn2)cc1)C(Cl)(Cl)Cl was run?
**A.** inactive: -11%

**Q.** With c1ccc(CNc2nc(-c3cccnc3)cs2)cc1 as the compound, how does the “activity, negative = inhibition” value read?
**A.** inactive: -12.7%

**Q.** With Cc1ccc(NC(=O)c2oc3ccc(S(=O)(=O)N4CCCCCC4)cc3c2C)c(C)c1 as the compound, how does the Potency read?
**A.** inconclusive: 0.562 µM [inhibitor, single point]

**Q.** How did the Potency turn out when Oc1ccc(N=Nc2ccc3c(c2)OCO3)c2ccccc12 was run?
**A.** active: 0.891 µM

**Q.** For O=C(CCCc1ccc(-c2ccccc2F)cc1)Nc1ccc(O)cc1, which Potency is on record?
**A.** inconclusive: 12.6 µM [inhibitor, partial curve]

**Q.** With CCn1c2ccc(F)cc2c2nc3ccccc3nc21 as the compound, how does the Potency read?
**A.** inconclusive: 22.4 µM [inhibitor, partial curve, poor fit]

**Q.** How did the Potency turn out when COc1ccc(CCNC(=O)CSc2cccc3cccnc23)cc1OC was run?
**A.** inconclusive: 31.6 µM [inhibitor, single point]

**Q.** For Cc1ccccc1NS(=O)(=O)c1ccc2[nH]cc(C(=O)NC3CCCCC3)c(=O)c2c1, which “activity, negative = inhibition” value is on record?
**A.** inactive: 8.21%

**Q.** With COc1ccccc1CNCCCCCCNCCCCCCCCNCCCCCCNCc1ccccc1OC as the compound, how does the Potency read?
**A.** inconclusive: 3.98 µM [inhibitor, full curve, poor fit]

**Q.** Which Potency does the source give for COc1cccc(-c2noc(COc3ccc(C(C)(C)C)cc3)n2)c1 here?
**A.** inconclusive: 3.98 µM [inhibitor, partial curve, poor fit]

**Q.** CC(C)Sc1cc(N2CCCC2)nc(-c2ccccc2Cl)n1 was tested. Which “activity, negative = inhibition” value did it give?
**A.** inactive: -12.9%

**Q.** CC1CCCC(NC(=O)COC(=O)/C=C/c2ccc(S(=O)(=O)N3CCOCC3)cc2)C1C (stereo not given) was tested. Which Potency did it give?
**A.** inconclusive: 2.24 µM [activator, partial curve]

**Q.** For O=C(N/N=C/c1ccccc1[N+](=O)[O-])c1ccc2c(c1)OCCO2, which Potency is on record?
**A.** inconclusive: 7.94 µM [inhibitor, partial curve]

**Q.** CCOc1ccc2nc(NC(=O)c3cccnc3)sc2c1 was tested. Which Potency did it give?
**A.** inconclusive: 11.2 µM [inhibitor, partial curve, poor fit]
